US20090241221A1, “TANDEM REAPEAT DNA CONSTRUCTS PRODUCING PROTEINS THAT ATTACK PLANT PATHOGENIC VIRUSES, FUNGI, AND BACTERIA BY DISRUPTING TRANSCRIPTION FACTORS ESSENTIAL FOR REPLICATION THEREOF IN PLANTS” (priority 2008, published 2009)

Experiments:
[1] = target: Zn (HIV1-F1) zinc finger peptide (Human immunodeficiency virus type 1 group M subtype B, UniProt P03348); conditions: for binding site on the zinc finger peptide by NMR: 1H NMR titration
[2] = tested on: normal cells (BALB 3T3, NRK, WI-348); conditions: Untransformed BALB 3T3, NRK and WI-348; cited from earlier work
[3] = tested on: normal cells (BALB 3T3, NRK, WI-348); experiment: Growth control and cell cycle arrest in normal cells; conditions: short-term treatment

## CCCCc1ccc(C(=O)O)nc1 [fusaric acid, 5-butyl picolinic acid]
[1]
  binding site on the zinc finger peptide by NMR: bind Zn (HIV1-F1) at a hydrophobic cleft
[1]; peptide 1.63 mM, Zn^2+ 2 mM, free zinc minimized
  mode of binding in 1H NMR titration: competitively binds both Zn^2+ and the Zn^2+/Peptide complex

## O=C(O)c1ccccn1 [picolinic acid, 2-pyridine carboxylic acid]
[2]
  phase of cell cycle arrest: blocked in G1
[3]
  cell cycle arrest of normal cells: reversibly arrests normal cells at a specific point in the cell cycle (G1)
[1]
  binding site on the zinc finger peptide by NMR: bind Zn (HIV1-F1) at a hydrophobic cleft
